Among all 310,000 compounds or so, about 14,000 (4.5%) showed an effect of 50% or more. Effects have a minus sign here. This is one part of the list.
Molecular target: human ether-à-go-go-related gene (hERG) potassium channel (human, UniProt Q12809)
Test: primary screen, population patch clamp on CHO cells stably expressing hERG
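Also: peak tail current of the secondary pulse compared with the same well before compound.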

Sequence of human ether-à-go-go-related gene (hERG) potassium channel (Q12809 whole entry, looked up): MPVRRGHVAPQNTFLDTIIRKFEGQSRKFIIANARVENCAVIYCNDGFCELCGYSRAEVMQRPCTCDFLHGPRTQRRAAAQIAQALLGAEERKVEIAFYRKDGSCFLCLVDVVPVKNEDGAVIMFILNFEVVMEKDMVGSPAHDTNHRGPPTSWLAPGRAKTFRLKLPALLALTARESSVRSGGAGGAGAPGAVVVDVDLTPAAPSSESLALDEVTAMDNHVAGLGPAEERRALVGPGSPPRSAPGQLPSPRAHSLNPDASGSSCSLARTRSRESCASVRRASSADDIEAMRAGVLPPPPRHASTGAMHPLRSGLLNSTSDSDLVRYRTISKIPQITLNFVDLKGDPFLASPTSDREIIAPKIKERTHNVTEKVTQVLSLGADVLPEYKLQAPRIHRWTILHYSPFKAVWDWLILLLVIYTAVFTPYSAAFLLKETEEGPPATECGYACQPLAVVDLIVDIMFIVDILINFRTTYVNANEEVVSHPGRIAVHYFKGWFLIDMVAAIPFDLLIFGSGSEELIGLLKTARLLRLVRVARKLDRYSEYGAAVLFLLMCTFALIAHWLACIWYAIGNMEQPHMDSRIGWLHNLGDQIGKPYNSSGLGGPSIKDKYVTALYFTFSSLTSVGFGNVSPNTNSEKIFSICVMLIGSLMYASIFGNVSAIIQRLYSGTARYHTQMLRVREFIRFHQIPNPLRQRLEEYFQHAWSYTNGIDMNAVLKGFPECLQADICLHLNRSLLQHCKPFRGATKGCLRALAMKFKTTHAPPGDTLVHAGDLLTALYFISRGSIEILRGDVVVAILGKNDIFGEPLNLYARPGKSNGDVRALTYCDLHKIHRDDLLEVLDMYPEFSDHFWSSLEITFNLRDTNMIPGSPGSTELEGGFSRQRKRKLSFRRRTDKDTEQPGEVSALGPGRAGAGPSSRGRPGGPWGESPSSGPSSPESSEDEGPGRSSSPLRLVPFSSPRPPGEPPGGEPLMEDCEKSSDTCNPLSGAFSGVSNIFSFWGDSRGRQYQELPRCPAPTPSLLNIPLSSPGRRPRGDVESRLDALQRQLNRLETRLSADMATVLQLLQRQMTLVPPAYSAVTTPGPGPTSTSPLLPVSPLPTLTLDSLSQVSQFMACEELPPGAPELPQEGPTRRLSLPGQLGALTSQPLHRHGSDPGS

| Structure (SMILES) | hERG current change (%, negative = inhibition) at 10uM |
| --- | --- |
| Cc1cccc(-n2c(SCc3cc(=O)n4ccsc4n3)nc3ccccc32)c1 | -13% |
| CC(C)N(C(=S)NCc1ccccc1)C(C)C | -4.24% |
| CN(CC(O)CN)CC(O)CN1CCCCC1.Cl (centres unmarked) | 4.64% |
| CCN(CCCNS(=O)(=O)c1ccc2c(c1)CCN2C(C)=O)c1cccc(C)c1 | 6.72% |
| COCCN(C(=O)COC(=O)Cc1coc2cc3c(cc12)CCC3)c1c(N)n(Cc2ccccc2)c(=O)[nH]c1=O | -18.4% |
| Cc1cccn2c(=O)c(/C=C(\C#N)C(=O)NC3CCS(=O)(=O)C3)c(Oc3ccc(F)cc3)nc12 (centres unmarked) | -14.4% |
| CC1=C(C(=O)OCc2ccccc2)C(c2ccc(-c3ccccc3)cc2)NC(=O)N1CCCCCC(=O)O (centres unmarked) | -2.3% |
| O=C(N/N=C\c1cn[nH]c1-c1ccccc1)c1ccc([N+](=O)[O-])cc1 | -64.9% |
| COCCCn1c(Cc2ccccc2)nnc1SCC(=O)N1CCCCC1 | -16.1% |
| Cc1n[nH]c(=O)c2c(NC(=O)CSc3ccc(F)cc3)oc(C)c12 | 1.69% |
| COc1ccc(C(=O)Nc2ccc(S(=O)(=O)NC(C)(C)C)cc2)cc1[N+](=O)[O-] | 28.1% |
| COc1ccccc1/C=C/CN1CCOCC1 | -3.9% |
| Cn1c(=O)c2cc(S(=O)(=O)NCCC(=O)N3CC=C(c4ccccc4)CC3)ccc2n(C)c1=O | -42.1% |
| COc1cc(Cl)c(C)cc1NC(=O)c1ccc(NS(=O)(=O)c2ccc(F)c(F)c2)cc1 | 3.36% |
| CCCCCC(=O)Nc1cccc(C2=NOC3(C2)C[C@@H](C(N)=O)N(C(=O)c2cc([N+](=O)[O-])cc([N+](=O)[O-])c2)C3)c1 (some centres unmarked) | 7.75% |
| Cc1cc(OC(=O)c2cccc(F)c2)c([N+](=O)[O-])c(=O)[nH]1 | -3.28% |
| O=S(=O)(/C=C/c1ccccc1)Nc1ccc(F)cc1 | -9.4% |
| CC(C)Oc1ccc(C2CC(=O)N(c3ccc(N(C)C)cc3)C2=O)cc1 (centres unmarked) | 11.9% |
| O=C(NCc1cccnc1)c1ccc([N+](=O)[O-])cc1 | -17% |

| Structure (SMILES) | hERG current change (%, negative = inhibition) at 10uM |
| --- | --- |
| CCSc1ccccc1C(=O)NC1CCCCC1 | 5.95% |
| CCOc1cc(C2C3=C(CCCC3=O)Nc3ccc4ncccc4c32)ccc1O (centres unmarked) | 7.64% |
| COc1ccc(N2CCN(C(=O)Cn3c(=O)[nH]c4ccsc4c3=O)CC2)cc1 | 3.63% |
| CC(=O)c1cccc(NC(=O)COC(=O)COc2ccccc2C)c1 | 10.8% |
| Cc1ccc(/C=C2\C(=O)NC(=S)N(c3ccc(F)cc3)C2=O)o1 | 24.7% |
| CC(c1ccccc1)n1cncc1C(=O)N1CCCC1=O.Cl (centres unmarked) | -6.62% |
| CC1CCN(S(=O)(=O)c2ccc(N=NC3=C(O)CC(C)(C)CC3=O)cc2)CC1 | 0.78% |
| Cc1ccc(N(c2ncnc(N)c2[N+](=O)[O-])C2CCCCC2)cc1 | -4.49% |
| CCOC(=O)CN1C(=O)CSc2ccccc21 | 0.699% |
| C=CCN1N=C(/C=C/c2ccc(C)cc2)CCC1=O | 15.1% |
| COc1ccc(F)cc1S(=O)(=O)NCCCn1ccnc1 | 22.6% |
| Cc1cc(C)c(OC2(c3ccccc3)OC(=O)c3ccccc32)c(C)c1 (centres unmarked) | -5.57% |
| CN1CCN(c2cc(N3CCCCCC3)c(F)cc2[N+](=O)[O-])CC1 | -25.7% |
| O=C(c1ccccn1)N1CCN(c2ccc(C(F)(F)F)cn2)CC1 | -14.2% |
| Cc1cc(NC(=O)CCC(=O)NNC(=O)c2ccc(C(C)(C)C)cc2)no1 | 8.03% |
| O=S(=O)(c1ccc(Cl)cc1)n1cccn1 | 38.3% |
| O=C(Nc1ccccc1Sc1ccccc1)c1ccc(F)cc1 | -7.65% |
| Cc1ccc(-c2noc(CCC(=O)NC3CCCc4ccccc43)n2)cc1 (centres unmarked) | 3.69% |
| CC1CCN(c2ccc(NC(=O)Cn3c(=O)oc4ccccc43)cc2)CC1 | 6.81% |

| Structure (SMILES) | hERG current change (%, negative = inhibition) at 10uM |
| --- | --- |
| Cc1ccc(NC(=S)Nc2nc(CC(=O)Nc3ccccc3)cs2)cc1 | 13% |
| O=C(CCCN1C(=O)/C(=C/c2ccccc2Cl)SC1=S)NNC(=O)c1ccncc1 | 2.34% |
| CC1CCCN(C(=O)CCNC(=O)c2ccccc2Cl)C1 (centres unmarked) | 23.3% |
| COc1ccc(NC(=O)c2cccc(N3C(=O)C4C5C=CC(C6CC56)C4C3=O)c2)cc1 (centres unmarked) | 2.88% |
| CCO[C@H]1OC(C(=O)NCc2nc3ccccc3[nH]2)=C[C@@H](c2ccc(C(F)(F)F)cc2)[C@@H]1CCCO | -8.5% |
| O=c1nc(N2CCOCC2)nc2n1CCO2 | 4.08% |
| CCOC(=O)N/N=C\c1cccc(OC)c1 | 28.2% |
| O=C(N=C1SC2CS(=O)(=O)CC2N1c1c(Cl)cccc1Cl)C1CC1 (centres unmarked) | 19.1% |
| Nc1ccccc1NC(=O)c1ccccc1 | 2.34% |
| Cc1nc(SCC(=O)OCc2ccccc2)c2c(=O)n(C)c(=O)n(C)c2n1 | 19.3% |
| O=C(c1cc2sccc2n1Cc1ccc(F)cc1)N1CCc2ccccc21 | 14.5% |
| Nc1c(N(CCC2=CCCCC2)C(=O)CCCOc2ccccc2)c(=O)[nH]c(=O)n1Cc1ccccc1 | -32.8% |
| Cc1ccc(SCCC(=O)Nc2ccccc2Br)cc1 | 12.8% |
| CCOc1ccc(NCC2CCOC(C)(C)C2)cc1 (centres unmarked) | 5.36% |
| CCn1c(=O)n(CC)c2cc(NC(=O)CSc3ccc([N+](=O)[O-])cn3)ccc21 | -5.04% |
| COc1ccc(-c2noc(-c3ccc(Cl)cc3)n2)cc1 | 7.42% |
| COc1cc(C(=O)N/N=C/c2ccc3c(c2)c2ccccc2n3C)ccc1O | 8.33% |
| CCS(=O)(=O)c1ccc(S(=O)(=O)CC)s1 | -27.3% |
